About 230 (0.21%) of roughly 110,000 compounds showed an effect of 50% or more. The list shows a part of the results.
These molecules were tested against DPAP1 (Plasmodium falciparum, UniProt Q8IIJ9) (assay: primary screen, percent inhibition; read by cleavage of a fluorogenic dipeptide substrate; higher = more effect of the substance).
Design: species or system P. falciparum D10 trophozoite lysates; single well
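Further: 30 min substrate incubation versus DMSO and 10 µM JCP410 controls.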

Sequence of DPAP1 (Q8IIJ9 whole entry, looked up): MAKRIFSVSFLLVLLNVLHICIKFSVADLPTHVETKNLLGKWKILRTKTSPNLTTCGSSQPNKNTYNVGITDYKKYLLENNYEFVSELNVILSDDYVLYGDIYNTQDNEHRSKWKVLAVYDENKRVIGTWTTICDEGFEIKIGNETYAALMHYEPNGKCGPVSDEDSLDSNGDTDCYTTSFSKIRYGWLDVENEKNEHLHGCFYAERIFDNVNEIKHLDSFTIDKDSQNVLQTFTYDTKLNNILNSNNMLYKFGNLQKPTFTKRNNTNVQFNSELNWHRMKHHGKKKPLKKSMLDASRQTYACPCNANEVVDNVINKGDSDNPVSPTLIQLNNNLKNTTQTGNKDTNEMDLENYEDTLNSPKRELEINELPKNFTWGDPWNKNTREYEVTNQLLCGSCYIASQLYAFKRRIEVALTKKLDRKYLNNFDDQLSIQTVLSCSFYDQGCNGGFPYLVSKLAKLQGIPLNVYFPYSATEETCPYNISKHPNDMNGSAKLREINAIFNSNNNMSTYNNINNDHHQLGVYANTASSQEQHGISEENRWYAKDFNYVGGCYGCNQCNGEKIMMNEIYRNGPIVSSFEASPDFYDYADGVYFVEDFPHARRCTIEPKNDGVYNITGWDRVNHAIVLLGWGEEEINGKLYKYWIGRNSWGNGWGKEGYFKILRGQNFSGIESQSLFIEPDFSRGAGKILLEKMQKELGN

Structure (SMILES)	% Inhibition @ 10 uM
CCCOc1ccc(C2c3c(-c4ccccc4O)n[nH]c3C(=O)N2CC2CCCO2)cc1 (stereo not drawn)	-1.35%
CCOC(=O)c1cc2sccc2n1CCC(=O)O	-2.84%
Cc1cc(/C=C2/NC(=O)NC2=O)c(C)n1-c1ccc(C23CC4CC(CC(C4)C2)C3)cc1	-3.75%
O=C1Nc2ccccc2C12OCC1(CO2)COC2(OC1)C(=O)Nc1ccccc12 (stereo not drawn)	-2.54%
COc1cc(/C=C(\C#N)c2nnc3n2CCCCC3)cc(OC)c1OC	18.3%
O=S(=O)(c1ccccc1)n1nc(-c2ccc(Cl)cc2)nc1NCc1ccco1	-6.71%
COc1ccc(NC(=O)C2=C(C)Nc3nc(CCCO)nn3C2c2ccc(Cl)c(Cl)c2)cc1 (stereo not drawn)	-7.19%
Cc1cc(C)c(S(=O)(=O)N2CCC(C(N)=O)CC2)cc1C	-6.43%
COc1ccccc1C(=O)Nc1nc2ccc(C)cc2s1	1.41%
CC1=CC(=O)OC1Cc1ccc2ccccc2n1 (stereo not drawn)	-1.54%
O=[N+]([O-])c1ccc(CN2CCN(c3ccc(Cl)cc3)CC2)cc1	-0.127%
CCCOc1ccc2oc(=O)c3c(c2c1)CCCN3C(=O)CN1CCN(Cc2ccccc2)CC1	9.89%
Cc1ccccc1C(=O)N1CCN(c2cccc(Cl)c2)CC1	4.03%
CN(C)CCN(C)C1CC2CCC1C2 (stereo not drawn)	4.74%
O=c1c2c(nc3n1CCS3)-c1ccccc1CC21CCCCC1	-3.38%
COCCNC(C)C(=O)C12CC3CC(CC(C3)C1)C2 (stereo not drawn)	-2.91%
Cc1[nH]c2ccccc2c1CCN1C(=O)C2C3C=CC(C3)C2C1=O (stereo not drawn)	5.12%
CCOC(=O)c1cnc2nc(NCc3ccc(F)cc3)nn2c1O	-4.19%
CC(=O)N1CC(c2ccccc2)C(c2ccc(Cl)cc2)=N1 (stereo not drawn)	-2.32%
CCN1C(=O)c2cccc3c(NC(=O)c4ccccc4C)ccc1c23	-3.93%
COc1ccccc1/C=C/C=C1\N=C(c2ccc(Br)cc2)OC1=O	-1.87%
O=C(NCc1ccc(Cl)cc1)c1ccc(Cn2c(=O)[nH]c3ccsc3c2=O)cc1	-0.972%
c1ccc(CN2CCN(Cc3csc(-c4ccccc4)n3)CC2)cc1	0.98%
CC1=C(CCN2CCc3c([nH]c4ccccc34)C2)C(C)(C)CCC1	-3.15%
CCC(C)(C)C(=O)Nc1cccc(NC(C)=O)c1	1.29%

Structure (SMILES)	% Inhibition @ 10 uM
CC1=C(C(=O)OC2CCCCCCC2)C(c2ccccc2Cl)NC(=O)N1 (stereo not drawn)	2.78%
CC(=O)Nc1ccc(-c2cc(-c3ccc(NC(C)=O)cc3)nc(-c3ccc(Br)cc3)n2)cc1	5.64%
Cc1c(C)n(C(=O)CSc2nnc(-c3ccccc3)o2)c2ccccc12	0.343%
CN(Cc1ccccc1)S(=O)(=O)c1ccc(NC(=O)c2ccc(F)cc2)cc1	-14.6%
Cc1ccc(OCC(=O)Nc2cc(C)c(C)cc2O)cc1	-1.61%
Cc1cc(CCN2CCC(=O)NC2=O)ccc1OC(C)C	5.93%
CC(C)=C1C2CCC1C(C(=O)Nc1cc(C)cc(C)c1)C2C(=O)O (stereo not drawn)	-2.53%
O=C(CN(c1cccc(C(F)(F)F)c1)S(=O)(=O)c1ccccc1)N1CCc2ccccc2C1	-3.28%
CCN(CC)c1nc2c(s1)C(=O)CC(C)(C)C2	-4.93%
CC(=O)c1cccc(NC(=O)c2ccoc2C)c1	1.28%
CC(C)(C)S(=O)(=O)c1ccc(C(=O)O)s1	1.8%
COc1ccc(C2=NN(C(C)=O)C(c3cccc(OC)c3OC)C2)cc1OC (stereo not drawn)	-7.45%
CCN(CC)c1ccc(/C=C2/C(=O)N(c3ccccc3)C(=S)N(c3cccc4ccccc34)C2=O)cc1	5.68%
CCC1CCc2c(sc(NC(=O)Cc3ccc(Cl)cc3)c2C(N)=O)C1 (stereo not drawn)	-2.76%
CC(=O)C(C)n1c(CN2CC(C)OC(C)C2)nc2c1c(=O)[nH]c(=O)n2C (stereo not drawn)	3.4%
COc1ccc(C2CC(=O)Nc3c2ccc2ccccc32)c(OC)c1OC (stereo not drawn)	0.475%
Cc1cc(=O)n2nc(N3CCC(C(=O)N4CCN(C)CC4)CC3)sc2n1	1.38%
CCN(CC)C(=O)Cn1cc(SCC(=O)NC2CCCCC2)c2ccccc21	-0.826%
Cc1ccccc1-c1n[nH]c(SCc2cc(=O)n3ccsc3n2)n1	2.29%
COC(=O)c1ccc(COc2ccc(OC)cc2)cc1	-5.47%
Fc1ccc(SCCc2ccccn2)cc1	-3.48%
CC1=C(C(=O)Nc2ccccn2)C(c2ccccc2)n2nc(-c3ccccc3)nc2N1 (stereo not drawn)	-2.9%
Cc1nc2sc(C(=O)Nc3ccccc3)c(N)c2c(C)c1C	2.7%
CC1=C(c2ccc(C)c(C)c2)S(=O)(=O)N=C1NCc1ccc(OC(C)C)cc1	-2.85%
CC1=C(C(=O)Nc2ccccc2C)C(c2ccc(Cl)cc2Cl)NC(=O)N1 (stereo not drawn)	4.61%

Structure (SMILES)	% Inhibition @ 10 uM
COC(=O)C1=C(C)NC(=O)/C1=C\c1cccc(Br)c1	-5.26%
CCCCO/C(O)=C1\C(C)=NC2=C(C(=O)CC(C)(C)C2)C1c1cccc(F)c1 (stereo not drawn)	6.08%
Cc1ccc(CN(C(=O)c2ccccc2F)C2CCS(=O)(=O)C2)o1 (stereo not drawn)	0.569%
O=C(CCC1CCCCC1)Nc1ccc2c(c1)OCCO2	-2.82%
CCOC(=O)c1c(NC(=O)c2cc3n(n2)C(C(F)(F)F)CC(c2ccco2)N3)sc(C)c1C (stereo not drawn)	-5.7%
OCCNCCc1c[nH]c2ccccc12	-0.0372%
CC1CCN(C(=O)CNC(=S)N2CC3CC(C2)c2cccc(=O)n2C3)CC1 (stereo not drawn)	5.89%
COC(=O)c1cc2ccc(C)cc2[nH]1	-1.7%
COc1ccc(C2=N/C(=C\c3cccs3)C(=O)O2)cc1	11.6%
CC(=O)Nc1ccc(NC(=O)c2cc3c(C)nn(-c4ccccc4)c3s2)cc1C	-10.4%
CC1(C)SCC2C(=O)N3C(CSC3(C)C)C(=O)N21 (stereo not drawn)	-4%
O=C1CSC(c2cccc([N+](=O)[O-])c2)N1c1ccccc1 (stereo not drawn)	4.54%
COc1cc(CNC(C)(C)CO)cc(Br)c1OCc1ccccc1	0.361%
CCN1C(=O)N/C(=C\c2cc(C)n(-c3ccccc3)c2C)C1=O	3.81%
O=C(Nc1cccc(Br)c1)C1CC(=O)N(C2CCCCC2)C1 (stereo not drawn)	0.0792%
CN(C)c1ccc(/C=C(/C(=O)c2ccccc2)c2nc3ccccc3[nH]2)cc1	-7.19%
Cc1nn(CC(=O)N2CCC3(CC2)OCCO3)c(=O)c2c1sc1ccccc12	0.697%
COc1ccc(/C=C/C(=O)Nc2ncc(Cc3ccc(Br)cc3)s2)cc1	4.95%
O=C(NCc1cccs1)C1C2C=CC3(CN(CCCN4CCOCC4)C(=O)C13)O2 (stereo not drawn)	4.01%
COc1cc(Br)cc(/C=C2\SC(Nc3ccc(F)cc3)=NC2=O)c1O	45.8%
CC(C)C[C@@H](C(=O)NCC#N)N(C)C(=O)c1ccc(-c2csc(-c3cccnc3)n2)cc1	-7.36%
CC1(C)CC(=O)C2=C(C1)OC(N)=C(C#N)C2CCc1ccccc1 (stereo not drawn)	-3.46%
Cc1ccc(Sc2cc(C(=O)NC3CC3)c3ccccc3n2)cc1	0.457%
CC1=CC2=NC(=O)/C(=C\c3cccn3CCOc3cc(C)cc(C)c3)C(=N)N2O1	2%
Cc1cccc(-n2nnc(-c3nsc(NC(=O)c4cccc(F)c4)n3)c2C)c1C	3.99%

Structure (SMILES)	% Inhibition @ 10 uM
CCN(CC)c1ccc(/C=C2/NC(=O)N(c3ccccc3)C2=O)cc1	-4.38%
Cc1nc2cccnc2n1-c1ccc(CC(=O)NCCCN2CCOCC2)cc1	-8.08%
CCCNC(=O)C1=NN(C)C2c3ccccc3SCC12 (stereo not drawn)	2.74%
Cc1ccc(-n2nc(C)c3c(C)c(CCC(=O)NCC4CCCO4)c(C)nc32)cc1 (stereo not drawn)	0.953%
CC(COc1ccc2c(c1)OCO2)NC(=O)Cn1ncc2ccccc2c1=O (stereo not drawn)	3.69%
CCCSC1=C(C#N)C(c2ccc(Cl)cc2)CC(=O)N1 (stereo not drawn)	4.33%
CCOC(=O)C1CCN(Cc2ccc(Br)cc2)CC1	-0.192%
CN(C)c1ccc(-n2nc3ccc(NC(=O)c4ccc(Br)o4)cc3n2)cc1	2.01%
CC1OC(Nc2cccc(O)c2)C(O)C(O)C1O (stereo not drawn)	4.54%
COC(=O)C1=C(C)NC(=O)CC1c1ccccc1F (stereo not drawn)	0.354%
COC(=O)c1sccc1S(=O)(=O)N1CC=C(c2ccccc2)CC1	-7.71%
CC(=O)c1ccc(OC2OC3COC(c4cccc(Br)c4)OC3C(O)C2O)cc1 (stereo not drawn)	0.032%
COc1ccc(C(=O)NC(C)c2ccccc2)cc1 (stereo not drawn)	-1.76%
O=C1NC(=O)C(Cc2ccc(F)cc2)C(=O)N1	-0.807%
O=C(NC1CC1)c1ccc2c(c1)C1C3CCC(C3)C1C(c1ccccc1)N2 (stereo not drawn)	23.8%
N#Cc1ccc(NC(=O)C2CC2(c2ccccc2)c2ccccc2)cc1 (stereo not drawn)	-1.45%
Cc1ccc(S(=O)(=O)NC(C)C(=O)Nc2cccc(F)c2)cc1 (stereo not drawn)	-3.43%
CC(C)CNS(=O)(=O)c1ccc(CCC(=O)NC2CCCC2)cc1	-6.08%
CCOc1cc(CNc2nc[nH]n2)ccc1OCC(=O)NC(C)(C)C	-3.23%
Cc1ccc(SC(C)C(=O)Nc2ccc(F)cc2)cc1 (stereo not drawn)	-2.77%
CN(Cc1ccccc1)C(=O)Cn1nnc2sc(-c3ccccc3)cc2c1=O	-0.946%
Cc1ccccc1-c1nc(CS(=O)(=O)CC(=O)NCCCN2CC(C)CC(C)C2)c(C)o1 (stereo not drawn)	3.19%
CCCCNC(=O)C1c2cc(OC)c(OC)cc2C(=O)N(C)C1c1cccs1 (stereo not drawn)	3.33%
COc1ccc(C(=O)Nc2nc3ccccc3[nH]2)cc1OC	-2.16%
